According to the supplement of paper PMC10126150:
Values marked as one replicate rest on one cluster of the flow cell; about a third of the high ones do not repeat.

Test system: ATP
Test: switch fluorescence ratio, 500 uM ATP over buffer (Cy3 cluster intensity, sum of 5 cycles each) (fold (ratio)); higher = stronger signal-on switching upon ATP binding; sequences stand for … in TCGTCGGCAGCGTCAGATGTGTATAAGAGACAGTTTTTTTTTTTTTTTTTTTTTTTTT…TC
Conditions: aptamer strand: ATP DNA aptamer (quencher-CACCTGGGGGAGTATTGCGGAGGAAGG + anchor), 100 nM annealed; ATP concentration: 500 uM; one replicate
Summary of the method: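 After annealing to 100 nM quencher-labelled ATP aptamer, Cy3-labelled switching-strand clusters on a modified Illumina MiSeq flow-cell were imaged in selection buffer. A second image followed after 15 min with 500 uM ATP at 22 °C, and five such buffer/ATP cycles were done, each separated by NaOH stripping and re-annealing. The fluorescence ratio, averaged per switch-domain sequence, is summed target-cycle over summed buffer-cycle Cy3 intensity per cluster, with clusters outside 100-1000 RFU excluded.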
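Note: ATP exposure 15 min at 22 °C before imaging.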

Sequence	switch fluorescence ratio
ATTTCGGGT	1
GTGGATCATT	0.995
ACTAGTCTCC	1.06
GGTTCCATGG	1.04
TTATGTATGG	0.976
GAGCGTGTCA	1.05
CGGGGGCA	1.01
GAGTTTGTGA	1.02
CGGTCACATT	1.01
TCGTATTTCA	0.989
TTAGGGCCTG	1.02
TTGTGACTTT	1.05
TAGCCCCTTG	1.02
CCAGGGTCCG	1.01
GCCTACCCGT	1.11
TCGACTCTGT	1
CCGTTGCCGG	0.943
TAACTAGGGT	1.06
GTGCTGCATG	0.991
GGTGACGTAG	1.02
TTGCGCGCAT	1.02
AGTTTTTCAG	1.01

Sequence	switch fluorescence ratio
CGAAGATTCA	0.989
AAGACGAGGG	1.03
GGCGGGGCGC	1.06
GATCCAAGTA	0.994
CATGCGAGAT	1.05
TGGGCATGGT	1.16
ATCAAAAGGT	1.04
CTGGTGTAT	1
AGTGGCCATG	0.982
CGTCGGCCAT	1.04
CACCTTTTCT	0.975
AGGCGGATTG	1.03
ACCTTCGAAA	2.9
CCCTAATCTA	0.999
AGAGAAGAGT	0.998
TTTATAGACA	0.991
GCTATCTATT	0.964
CCCGATGCCC	1.29
GCGATATTTT	1.22
CCGTGATTTA	1.02
TTATTATGAG	1.02
AACGGGAACA	1.07

Sequence	switch fluorescence ratio
AGTACACAGA	1.09
AGAAAAGAAT	1.06
TTCACAGTTT	1.01
GATACCTATT	1.06
CGCCCGCTTC	1.97
CAAAGGAGGA	1.04
GAGGAAAAT	0.982
GTTGTATAAA	1.02
AGCATTCTTT	1.01
CAGAATTGCG	0.976
AGCAAACCAG	1.05
ACCGGCATTT	1.08
GCATGAACTT	1.02
ACAAACCGAA	1.17
GGTTGTTTAC	0.973
CGCGGGCTAG	0.967
CCTTTTCATA	1.04
CCAAGTACA	1.23
CCCTGAGTTC	1.02
GGTTGTTATG	0.999
ATACATTGAC	1.1
TGGCAGTTGC	0.965

Sequence	switch fluorescence ratio
GGGTTCGCTC	0.99
ACCGGCAGCG	1.1
TGGGTGAGAG	0.972
CCTGTCCCGA	1.02
GGATTGTGCC	1.03
CGGAGACCAA	1.18
ACAATGCAAG	0.975
GGCGCGAGTA	1.04
ACCCGATGCG	1.06
AATGAATAAT	1
CAGGATCCGG	0.974
TTGCCTCTGT	1.14
ACACCCTAGT	1.14
AATAAAAAAG	0.939
ATGGGGCTGC	1.04
CAGTGTTTGA	1.05
AGTCTTAGGT	0.975
AGGGCGCGAC	1.1
AGATTTGGTG	0.976
